{
  "source": "patent US20220119517A1",
  "about": "(NANJING SANHOME PHARMACEUTICAL, published 2022)",
  "binders": {"B1": {"name": "Hu330-1 (antibody, human IgG1, kappa)", "heavy": "EVQLVESGGGLVQPGGSLRLSCAASGFGFSDYGMAWVRQAPGKGLEWVSFISNSAYSIYYADTVTGRFTISRDNAKNSLYLQMNSLRAEDTAVYYCARLGRGNSFAYWGQGTLVTVSS[sequence of human IgG1 constant region omitted]", "light": "DIVMTQSPDSLAVSLGERATINCKSSQSLLNSGNQKNYLTWYQQKPGQPPKLLIYWGSTRESGVPDRFSGSGSGTDFTLTISSLQAEDVAVYYCQNELFYPLTFGQGTKLEIKRTVAAPSVFIFPPSDEQLKSGTASVVCLLNNFYPREAKVQWKVDNALQSGNSQESVTEQDSKDSTYSLSSTLTLSKADYEKHKVYACEVTHQGLSSPVTKSFNRGEC", "notes": "also called humanized antibody Hu330-1"}},
  "key": {"[1]": {"biological_target": "T1, human Claudin18.2 (CLDN18.2), full length, on cells (human)", "test": "cell-based or functional assay"}, "[2]": {"biological_target": "T1, human Claudin18.2 (CLDN18.2), full …", "test": "cell-based or functional assay", "remark": "listed apart in the source"}, "[3]": {"biological_target": "T1, human Claudin18.2 (CLDN18.2), full …", "test": "FACS on CHO-K1-CLDN18.2 cells, Graphpad fit", "experimental": "(§1) CHO-K1-CLDN18.2 cells and CHO-K1-CLDN18.1 cells (prepared in Example 5) were digested with gastric cancer cell digestion solution at 37° C. for 15 minutes, respectively; terminated with complete culture medium, centrifuged at 1000 rpm for 5 minutes, the supernatant was discarded; the cells were resuspended with 2% fetal bovine serum-PBS diluent, the cells were adjusted to 1×10⁶ cells/ml, 100 μl of cell suspension was added to each well of the 96-well U-shaped-bottom plate; 2% fetal bovine serum-PBS was used to dilute the humanized antibody and the control antibody to final concentrations of 10 μg/ml, 2 μg/ml, 0.4 μg/ml, 0.08 μg/ml and 0.016 μg/ml, respectively, mixed well with the cells in equal volume, incubated at 4° C. for 1 hour; centrifuged at 1000 rpm for 5 minutes, the supernatant was discarded; 200 μl Cell Stain Buffer (Biolegend) was added to each well to wash twice, centrifuged at 1000 rpm for 5 minutes at each time and the supernatant was discarded; 100 μl of PE-anti human Fc antibody (Biolegend) was added, incubated at 4° C. for 1 hour; washed with Cell Stain Buffer (Biolegend) twice, centrifuged at 1000 rpm for 5 minutes at each time and the supernatant was discarded. 300 μl Cell Stain Buffer was added to resuspend the cells, and detected by BD FACS Jazz flow cytometry analyzer. […]"}, "[4]": {"biological_target": "T1, human Claudin18.2 (CLDN18.2), full …", "test": "FACS on CHO-K1-CLDN18.2 cells, ratio of fitted Kd", "experimental": "as §1"}, "[5]": {"biological_target": "T1, human Claudin18.2 (CLDN18.2), full …", "test": "FACS on NUGC4 cells, positive rate", "experimental": "The effect of the Fc-mutated humanized antibody on the binding to the target CLDN18.2 was identified by FACS. NUGC4 cells were digested using the gastric cancer cell digestion solution at 37° C. for 15 minutes; terminated by the complete culture medium, centrifuged at 1000 rpm for 5 minutes, the supernatant was discarded; the cells were resuspended with 2% fetal bovine serum-PBS diluent, the cells were adjusted to 1×10⁶ cells/ml, 100 μl of cell suspension was added to each well of the 96-well U-shaped-bottom plate; the antibody was diluted with 2% fetal bovine serum-PBS to final concentrations of 5 μg/ml, 1 μg/ml, 0.2 μg/ml, 0.04 μg/ml and 0.008 μg/ml, mixed with the cells in equal volume, incubated at 4° C. for 1 hour; centrifuged at 1000 rpm for 5 minutes, the supernatant was discarded; 200 μl of Cell Stain Buffer (Biolegend) was added to each well to wash twice, centrifuged at 1000 rpm for 5 minutes at each time and the supernatant was discarded; 100 μl of PE-anti human Fc antibody (Biolegend) was added, incubated at 4° C. for 1 hour; washed twice using Cell Stain Buffer (Biolegend), centrifuged at 1000 rpm for 5 minutes at each time and the supernatant was discarded. 300 μl of Cell Stain Buffer was added to resuspend the cells, detected with BD FACS Jazz flow analyzer."}, "[6]": {"biological_target": "T2, antigen protein Claudin18.2-His (human, UniProt P56856-2 1-261, limits assumed)", "T2 construct": "also called CLDN18.2 protein", "test": "BLI (Fortebio Octet RED96), antibody on AHC sensor, CLDN18.2 protein in solution, 37 °C", "experimental": "Another method is to verify the affinity of the humanized antibody above at the protein level. The antibody was immobilized by the AHC sensor, and combined with different concentrations of antigens, and affinity determination was performed according to the manual of Octet RED96."}, "[7]": {"biological_target": "T1, human Claudin18.2 (CLDN18.2), full …", "test": "FACS on CHO-K1-CLDN18.2 cells, relative Kd from Graphpad fit", "experimental": "as §1"}},
  "note": "Read-outs that look alike come from different tables or passages of the source.",
  "data": [
    {"binder": "B1", "values": [
      {"measurement": "ADCC activity by luciferase labeling, EC50", "setting": "[1]", "result": 0.45, "unit": "nM"},
      {"measurement": "ADCC activity by luciferase labeling, Top", "setting": "[1]", "result": 89800},
      {"measurement": "ADCC activity by luciferase labeling, EC50", "setting": "[2]", "result": 0.12, "unit": "nM"},
      {"measurement": "ADCC activity by luciferase labeling, Top", "setting": "[2]", "result": 68300},
      {"measurement": "Bmax (MFI)", "setting": "[3]", "result": 11300, "unit": "MFI"},
      {"measurement": "fold higher binding activity than IMAB362-similar-hG1", "setting": "[4]", "result": "~15", "unit": "fold"},
      {"measurement": "EC50", "setting": "[5]", "result": 0.8, "unit": "nM"},
      {"measurement": "Top (%)", "setting": "[5]", "result": 92.1, "unit": "%"},
      {"measurement": "Kd", "setting": "[6]", "result": 0.526, "unit": "nM"},
      {"measurement": "koff", "setting": "[6]", "result": "9.22e-05", "unit": "s⁻¹"},
      {"measurement": "kon", "setting": "[6]", "result": 175000, "unit": "M⁻¹ s⁻¹"},
      {"measurement": "Kd", "setting": "[7]", "result": 1.7, "unit": "nM"}
    ]}
  ]
}
